# Measurements reported in PubChem BioAssay AID1346428 (National Center for Advancing Translational Sciences (NCATS), 2018).
# Several values for one entry are separate records, joined by “and”; a condition that tells them apart may be missing. Equal values may be shown once. About 1,200 (2.5%) of roughly 48,000 compounds were called active. Not shown: some 2% with an inconclusive outcome.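 How the source made its calls: active means activation of at least 60% and not above a set upper limit (about 1 call in 100 departs from these limits); inconclusive means activation of 40% to 60%, or above that upper limit; inactive means activation under 40%.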 This is one part of the list.
# Biological target: Probable G-protein coupled receptor 32 (Homo sapiens) (UniProt O75388)
# Sequence of UniProt O75388 (O75388 whole entry, looked up): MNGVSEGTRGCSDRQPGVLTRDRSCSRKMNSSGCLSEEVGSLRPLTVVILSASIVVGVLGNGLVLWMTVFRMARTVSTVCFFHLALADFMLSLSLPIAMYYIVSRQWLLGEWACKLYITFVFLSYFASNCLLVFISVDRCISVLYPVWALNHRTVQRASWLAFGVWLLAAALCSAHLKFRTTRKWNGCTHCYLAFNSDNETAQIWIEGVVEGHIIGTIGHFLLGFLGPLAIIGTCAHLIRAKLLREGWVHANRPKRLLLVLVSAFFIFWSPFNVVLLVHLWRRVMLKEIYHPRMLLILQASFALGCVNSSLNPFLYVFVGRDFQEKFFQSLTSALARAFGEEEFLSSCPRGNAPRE
# Assay: qHTS for Agonists of Human Resolvin D1 Receptor DRV1; further: 0% is about no effect
# Settings: CHO-K1 GPR32 beta-arrestin PathHunter luminescence, 90 min; at 76.9 µM; stronger effect = higher value; zero percent set by DMSO-only wells
# In short: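 Agonism was scored by beta-Gal fragment complementation (chemiluminescent read, 1 h detection at ambient temperature) reporting beta-arrestin binding to GPR32 in engineered CHO-K1 cells. Compound treatment lasted 90 min at 37 C, normalized to a DMSO basal control.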
row,SMILES,activation
1,COc1ccc(NC(=O)C2CCCN(S(=O)(=O)c3cccc4nonc34)C2)cc1Cl (stereo not given),inactive: 14.7%
2,COc1ccccc1NC(=O)CSc1nc2c(oc3ccccc32)c(=O)n1Cc1ccco1,inactive: 22.7%
3,Cn1cnc([N+](=O)[O-])c1Sc1ncnc2nc[nH]c12,inactive: -78.5% and inactive: -60.5% and inactive: -4.95%
4,Clc1cccc(-n2cc(-c3ccccc3)c3c(NC4CCCC4)ncnc32)c1,inactive: -25.6%
5,COc1cccc(N2CCN(c3ncnc4c3c(-c3ccccc3)cn4-c3ccc(F)cc3)CC2)c1,inactive: -26.7%
6,CCCCN(CC)C(=O)CCCn1c(=O)c2cccn2c2ccccc21,inactive: -10.3%
7,O=C(NCc1cccc(Cl)c1)NCc1noc2ccccc12,inactive: -7.67%
8,Cc1ccc(NC(=O)C(=O)NCC2(c3ccccc3)CCCC2)cc1C,inactive: 5.59%
9,CCc1cccc(NC(=O)c2c(C)oc3nc(C)nc(N4CCCC4)c23)c1,inactive: -7.21%
10,O=C(CN1C(=O)COc2ccc(S(=O)(=O)N3CCOCC3)cc21)N1CCN(c2ccccc2F)CC1,inactive: -6.78%
11,O=C(NCCCO)c1nn(-c2ccc(Cl)cc2)nc1CO,inactive: 2.33%
12,COC(=O)C1CCN(c2csc3ccc(Cl)cc3c2=O)CC1,inactive: -4.04%
13,CCCOc1ccc(CNC(=O)CN2C(=O)c3cccnc3Oc3ccc(C)cc32)cc1,inactive: -8.65%
14,Nc1nc2ncc(CNc3ccc(C(=O)N[C@@H](CCC(=O)O)C(=O)O)cc3)nc2c(=O)[nH]1,inactive: 0.389%
15,COc1cccc(NC(=O)Cn2c(=O)n(CCc3ccc(OC)c(OC)c3)c(=O)c3ccccc32)c1,inactive: -9.3%
16,CCOc1ccc2oc(=O)cc(CN3CCN(c4ccccc4OC)CC3)c2c1,inactive: -20.7%
17,CCc1ccc(OCc2cc(=O)n3cc(C)sc3n2)cc1,inactive: 3.51%
18,COc1cc(OC)c(OC)cc1CNCCCSc1nnnn1C,inactive: -0.945%
19,COc1ccc(C(=O)N(Cc2cc(OC)c(OC)c(OC)c2)C2CCS(=O)(=O)C2)cc1Cl (stereo not given),inactive: -12.8%
20,CCc1ccc(NCc2cc3ccc(OC)cc3n(CC(=O)Nc3ccc(C)c(Cl)c3)c2=O)cc1,inactive: -42.1%
21,Cc1ccc(CSc2nc(-c3ccccc3C)nc3c2Cc2c(CO)cnc(C)c2O3)cc1,inactive: 33.9%
22,CCCCn1c(=N)n(CCOc2ccccc2OC)c2ccccc21,active: 64.5%

row,SMILES,activation
1,Cc1ccc(C(=O)c2oc3ccccc3c2NC(=O)Cc2ccccc2)cc1,inactive: -3.84%
2,CC(C)Oc1ccc(CNC(=O)Cn2nc(N3CCN(c4ccccc4)CC3)ccc2=O)cc1,active: 67.9%
3,Cn1cc(S(=O)(=O)N2CCOCC2)cc1C(=O)Nc1cccc(C#N)c1,inactive: -2.59%
4,CCC(=O)N1CCc2cc(OC)c(OC)cc2C1COc1ccc2c(C)cc(=O)oc2c1 (stereo not given),inactive: -2.96%
5,CC(C)c1ccc(CNc2n[nH]c(-c3ccco3)n2)cc1,inactive: 35.2%
6,COCCNC(=O)C1=CC(c2ccc3c(c2)OCO3)=NS(=O)(=O)N1C,inactive: -5.39%
7,COc1ccc(C2c3c(n(C)c4ccccc34)C(=O)N2CC(=O)Nc2ccc(F)cc2)cc1 (stereo not given),inactive: -23.9%
8,COc1ccc(-c2ccc(=O)n(CC(=O)Nc3ccc(OC)c(OC)c3)n2)cc1,inactive: -13.2%
9,CCOc1ccc(-c2nc(SCC(=O)Nc3cc(F)ccc3F)n3[nH]c(=O)cc3n2)cc1,inactive: 4.52%
10,Nc1nc(Cl)nc2c1ncn2[C@@H]1O[C@H](CO)[C@@H](O)[C@H]1O,inactive: 12.8%
11,CCOC(=O)c1c(S(=O)(=O)N2CCC(C(=O)N3CCN(c4ccc(F)cc4)CC3)CC2)c(C)n(C)c1C,inactive: -1.13%
12,Cn1ncc2c(NCc3ccc(F)cc3)ncnc21,inactive: 1.57%
13,CCn1nnc2cc(C(=O)Nc3ccc(Br)cc3F)ccc21,inactive: 29.9%
14,Cn1c(=O)c2c(SCC(=O)N3CCc4ccccc43)nc(-c3ccc(Cl)cc3)nc2n(C)c1=O,inactive: -2.06%
15,Cc1ccc(NC(=O)C2CCCN2S(=O)(=O)c2ccc3c(c2)n(C)c(=O)c(=O)n3C)cc1C (stereo not given),inactive: -21.9%
16,O=c1[nH]c2ccccc2n1CCCN1CCN(C(c2ccccc2)c2ccccc2)CC1,inactive: 31.8%
17,Cc1cccc(CSc2ncccc2C(=O)O)c1,inactive: 9.2%
18,CCOc1ccccc1NC(=O)Cn1c(=O)n(C(C)C)c(=O)c2oc3ccccc3c21,inactive: -22.4%
19,COCCn1c(C)cc(O)c(C(c2ccc(F)cc2)N2CCC(C)CC2)c1=O (stereo not given),inactive: -6.04%
20,COc1ccc(-n2nc3c(N4CCCC(C(=O)NCCc5ccccc5C)C4)nnc(C)c3c2C)cc1 (stereo not given),inactive: -6.59%
21,COc1ccc(-n2c(=O)c3ccc(C(=O)NCc4ccc(C)cc4)cc3n(Cc3ccc(Cl)cc3)c2=O)cc1,inactive: -0.14%
22,Cc1ccc(N(CC(=O)Nc2ccc(C)c(Cl)c2)S(=O)(=O)c2cccs2)cc1,inactive: 6.55%

row,SMILES,activation
1,NO,inactive: 13.6%
2,COc1cccc(NC(=O)Cn2c(=O)n(-c3ccccc3)c(=O)c3c2c2cc(OC)ccc2n3C)c1,inactive: 3.39%
3,O=S(=O)(c1ccc(-c2cnc(C3CC3)o2)cc1)N1CCN(c2ccccc2)CC1,inactive: -30.4%
4,CC1=C(C(=O)OC2CCCC2)C(c2ccccc2C(F)(F)F)CC(=O)N1 (stereo not given),active: 95.9%
5,Cc1ccc(OCC(=O)Nc2cccc(C(=O)OCc3cc(=O)n4c(C)csc4n3)c2)cc1,inactive: -12.2%
6,CCc1cccc(NC(=O)c2ccc3c(c2)c(C)c(C)n3Cc2ccc(F)cc2)c1,inactive: -16.8%
7,CCOc1ccccc1NC(=O)c1c(NC(=O)Cc2ccc(OC)cc2)sc2c1CCC2,inactive: 0.791%
8,Cc1ccc(CNC(=O)CN2N=C(c3ccccc3)CCC2=O)cc1,inactive: -7.77%
9,CC(=O)c1ccc(N2CCN(c3ncnc4c3cnn4-c3cc(Cl)ccc3C)CC2)cc1,inactive: 27.2%
10,Cc1ccccc1OCC(=O)OCc1cc(=O)n2nc(-c3cccs3)sc2n1,inactive: -18.6%
11,COc1ccccc1CNC(=O)c1nnn(CC(=O)Nc2c(C)cccc2C)c1N,inactive: -2.25%
12,Cn1c(C(=O)Nc2ccc(OC(F)(F)F)cc2)cc2c(=O)n3ccccc3nc21,inactive: -1.08%
13,CCOc1ccc(NC(=O)N2CCC(N3CCCCC3)CC2)cc1,inactive: -1.71%
14,Cc1cc(NC(=O)C2CCCN(S(=O)(=O)c3cccc4nsnc34)C2)ccc1Br (stereo not given),inactive: 14.4%
15,O=C(Nc1cc(Cl)cc(Cl)c1)c1ccc(F)c(S(=O)(=O)N2CCN(c3ccccc3F)CC2)c1,inactive: -12.3%
16,O=C(c1ccc2c(c1)N(Cc1ccc(Cl)cc1)C(=O)c1ccccc1S2(=O)=O)N1CCN(c2ccccn2)CC1,inactive: -12.3%
17,Cc1cccc(CSc2nnc3[nH]c(=O)cc(-c4ccccc4)n23)c1,inactive: 3.26%
18,COc1cc(-c2nc3ccc(Cl)cn3c2Nc2ccc3c(c2)OCCO3)ccc1O,inactive: -19.3%
19,Cc1ccc(NC(=O)COc2ccc3oc4c(c3c2)CCCC4)cc1C,inactive: 8.98%
20,Cc1ccc(CN2COc3c(Cl)cc4c(-c5ccccc5)cc(=O)oc4c3C2)cc1,inactive: 1.42%
21,O=C(Cn1ncc2c3ccccc3n(Cc3ccc(F)cc3)c2c1=O)NCCCN1CCCCC1,inactive: -15.4%
22,CCN(CC)CCNC(C(=O)OCCC(C)C)c1ccccc1 (stereo not given),inactive: -3%

row,SMILES,activation
1,N#Cc1c[nH]n2c(NC3CCCC3)c(-c3ccc(Cl)cc3)nc12,inactive: -20.1%
2,Cc1ccc(CNc2nc3ccc(C)cc3n3nnnc23)cc1,inactive: 13.7%
3,CCc1ccc(NC(=O)C(=O)NCCc2sc3nc(-c4ccc(OC)cc4)nn3c2C)cc1,inactive: -8.96%
4,CCOc1ccccc1NC(=O)N1CCC2(CC1)Oc1ccccc1C(=O)N2Cc1ccccc1F,inactive: -22.8%
5,CC1=C(C(=O)Nc2ccccc2)C(c2ccc(O)cc2)n2nc(SCc3ccccc3)nc2N1 (stereo not given),inactive: 14.9%
6,Cc1ccc(CCNC(=O)c2c(C)nn(-c3ccc(F)cc3)c2-n2cccc2)cc1,inactive: 18%
7,O=C(CCS(=O)(=O)c1cccc2nonc12)Nc1ccc(Br)cc1,inactive: -17.4%
8,Cc1ccc(NS(=O)(=O)c2ccc(-c3cc(C)no3)cc2)c(Br)c1,inactive: 6.89%
9,O=c1[nH]c(SCc2ccc([N+](=O)[O-])cc2)nc2c1CCCC2,inactive: 10%
10,Cc1ccccc1NC(=O)CSc1ccc(-c2cccs2)nn1,inactive: -4.17%
11,COc1ccc(Cl)cc1NC(=O)CCn1c(=O)oc2ccccc21,inactive: 3.27%
12,COc1ccc(NC(=O)c2cc(C3CC3)nc3c2c(C)nn3-c2ccccc2)cc1OC,inactive: -16.7%
13,COc1ccc(NC(=O)Nc2nnc(N(CC(C)C)CC(C)C)s2)c(OC)c1,inactive: -34.5%
14,CCN(C(=O)c1cc2c(s1)-c1ccccc1OC2)c1cccc(C(F)(F)F)c1,inactive: -16.7%
15,O=C(CSc1nnc(COc2ccccc2)o1)Nc1cc(C(F)(F)F)ccc1Cl,inactive: -66.6%
16,Cc1ccc(CNC(=O)Cn2cccc2C(=O)c2ccccc2C)cc1,inactive: -17.3%
17,Cc1ccc(NC(=O)c2c(NC(=O)C(F)(F)F)sc3c2CCCCC3)cc1,active: 61.6%
18,O=C(Cn1c(-c2cccs2)cc2ccccc21)NCCCN1CCN(c2ccccc2F)CC1,inactive: -0.795%
19,O=C(CSc1nccn1Cc1ccccc1)Nc1ccc2c(c1)OCCO2,inactive: -4.87%
